We go through 56 variants from the RNAGym collection of RNA variant scans (doi:10.7554/elife.90254).

The source gives no read counts; variants with many changes may rest on few reads.

The labels stand for the following.
B1: LINE1-mini (parent)
chain: GGCAGAGCUCAACACAGCGUGGCAAAGUGGCUGUGGCUAGACUGCC

The variants in the data set derive from B1. The data set can be described thus: self-cleavage, relative activity (ratio to wild type); higher = more cleavage; in vitro, sequencing; the parent is a self-cleaving ribozyme.
For GGCAGAGCUCAACACAGCGUGGCAAACUGGCUGUGGCUAGCGUGCC, the self-cleavage is 0.

On to GGCAGAGCUCAACACAGCGUGGCAAAAUGGCUGUGACUAGACAGCC, for which the self-cleavage turned out to be 0.06.

As to GGCAGAGCUCAACACAGCGUGGCAAUGUGUCCGUGGCUAGACUGCC, the self-cleavage is 0.2.

As to GGCAGAGCUCAACACAGCGUGGCAAUGUGGCUGUAGCUAGACCGCC, the self-cleavage is 0.03.

As for GGCAGAGCUCAACACAGCGUGGCAAUGUCGCUGUGGCUAGACUGCA, the self-cleavage stood at 0.49.

As for GGCAGAGCUCAACACAGCGUGGCAAAAUGGCUCUAGCUAGACUGCC, the self-cleavage was 0.05.

As to GGCAGAGCUCAACACAGCGUGGCAAAAUGGCUUUAGCUGGACUGCC, the self-cleavage was determined as 0.06.

Turning to GGCAGAGCUCAACACAGCGUGGCAAAAUGACUGUGGCUAGACUUCC, the self-cleavage was determined as 0.13.

Turning to GGCAGAGCUCAACACAGCGUGGCAAAAUGGCUGUUGCUAGACUGAC, the self-cleavage stood at 0.02.

As to GGCAGAGCUCAACACAGCGUGGCAAUGUGGCUGUUGCUAGACGGGC, the self-cleavage came to 0.1.

Take GGCAGAGCUCAACACAGCGUGGCAAUUUGGCUGUGGCUAUACUGCU: the self-cleavage is 0.08.

As to GGCAGAGCUCAACACAGCGUGGCAAACUGGCUUUGGCUAGACAGCC, the self-cleavage was determined as 0.19.

For the variant GGCAGAGCUCAACACAGCGUGGCAAACUGGCUGUGGCUAGACUCCG, the self-cleavage was determined as 0.07.

For GGCAGAGCUCAACACAGCGUGGCAAAAUGGCUGUGGCUAGACUAGC, the self-cleavage amounted to 0.31.

Turning to GGCAGAGCUCAACACAGCGUGGCAAAACGGCUCUGGCUAGACUGGC, the self-cleavage stood at 0.03.

GGCAGAGCUCAACACAGCGUGGCAAACUGGCUAUGGCUAGACAGCC: the self-cleavage was found to be 0.02.

For GGCAGAGCUCAACACAGCGUGGCAAAACAGCUGUGGCUGGACUGCC, the self-cleavage amounted to 0.1.

As to GGCAGAGCUCAACACAGCGUGGCAAACCGGCUGUGGCUAGAAUCCC, the self-cleavage came out at 0.01.

Turning to GGCAGAGCUCAACACAGCGUGGCAAUGUGGCUAUCGCUAGACUGCC, the self-cleavage stood at 0.02.

As for GGCAGAGCUCAACACAGCGUGGCAAACAUGCUGUGGCUAGACUGAC, the self-cleavage came to 0.26.

With GGCAGAGCUCAACACAGCGUGGCAAAAUGGCCGUGUCUAGAUUGCC, the self-cleavage was found to be 0.12.

On to GGCAGAGCUCAACACAGCGUGGCAAUGUGUCUGUGGCUAGACUGUC, for which the self-cleavage was found to be 0.17.

Turning to GGCAGAGCUCAACACAGCGUGGCAAUGUGGCAGUGGCUAGACUGCG, the self-cleavage amounted to 0.18.

For the variant GGCAGAGCUCAACACAGCGUGGCAAACUGGCUAUGGAUAGACUGCC, the self-cleavage came out at 0.03.

As for GGCAGAGCUCAACACAGCGUGGCAAUGAGGCUGUGGCUAGACGGCC, the self-cleavage stood at 0.

In the case of GGCAGAGCUCAACACAGCGUGGCAAUGUGGCUGUCGCUAGACUUCC, the self-cleavage worked out at 0.1.

With GGCAGAGCUCAACACAGCGUGGCAAUGUGGCUGUCGCUAGACUCCC, the self-cleavage turned out to be 0.02.

As for GGCAGAGCUCAACACAGCGUGGCAAUGCGGCUGUGGCAAGAUUGCC, the self-cleavage was 0.05.

Regarding GGCAGAGCUCAACACAGCGUGGCAAUGUGGCUGUGGCAUGACUGCC, the self-cleavage was 0.7.

Regarding GGCAGAGCUCAACACAGCGUGGCAAACUGGCUGUGGCUAUACUGAC, the self-cleavage worked out at 0.06.

For the variant GGCAGAGCUCAACACAGCGUGGCAAACUGGCUGUGGCUGGACUGAC, the self-cleavage worked out at 0.02.

Regarding GGCAGAGCUCAACACAGCGUGGCAAAAUGGGUGUGGCUAGACUACC, the self-cleavage is 0.12.

For the variant GGCAGAGCUCAACACAGCGUGGCAAUGUGGCUGUGGCUAACCUGCC, the self-cleavage came to 0.11.

For the variant GGCAGAGCUCAACACAGCGUGGCAAAAUAGUUAUGGCAAGACUGCC, the self-cleavage turned out to be 0.02.

On to GGCAGAGCUCAACACAGCGUGGCAAACUGGCUGUGUCUAGAUUGCC, for which the self-cleavage is 0.02.

As for GGCAGAGCUCAACACAGCGUGGCAAAAUGGCUGUGUCUAGACAGCC, the self-cleavage worked out at 0.04.

Regarding GGCAGAGCUCAACACAGCGUGGCAAUGUGGCUGUUGCUAGAAUGCC, the self-cleavage is 0.05.

With GGCAGAGCUCAACACAGCGUGGCAAAAUGGCUGUGGCUGGAGUGAC, the self-cleavage was determined as 0.02.

Consider GGCAGAGCUCAACACAGCGUGGCAAAAUGUCUGUUGCAAGACUGCC, for which the self-cleavage is 0.04.

Take GGCAGAGCUCAACACAGCGUGGCAAAAUGGCUGUGUCUAGACUGCA: the self-cleavage came to 0.08.

For the variant GGCAGAGCUCAACACAGCGUGGCAAAAUGGCGGUGGCUAGACUACC, the self-cleavage is 0.03.

For the variant GGCAGAGCUCAACACAGCGUGGCAAAAUGGCUGUGGAUAGAAUGCA, the self-cleavage turned out to be 0.02.

Regarding GGCAGAGCUCAACACAGCGUGGCAAUGUGGCUGUGGCCAGACUUUC, the self-cleavage turned out to be 0.05.

Turning to GGCAGAGCUCAACACAGCGUGGCAAACUGGCUAUGGCUGGACUGCC, the self-cleavage is 0.04.

Regarding GGCAGAGCUCAACACAGCGUGGCAAAAUGGCUGUGGCUAUACUGCG, the self-cleavage is 0.26.

As to GGCAGAGCUCAACACAGCGUGGCAAAAAGGCUGUGGCUAGUCUGCC, the self-cleavage amounted to 0.58.

As for GGCAGAGCUCAACACAGCGUGGCAAAACGGCUCUGGCUAGACUGCC, the self-cleavage came out at 0.16.

GGCAGAGCUCAACACAGCGUGGCAAAAUGGAUGUGGCGAGACUGCC: the self-cleavage stood at 0.05.

Take GGCAGAGCUCAACACAGCGUGGCAAUGUGGCUGUGACUAGACUGUC: the self-cleavage was 0.12.

GGCAGAGCUCAACACAGCGUGGCAAACUGGGUGUGGCUAGACUGUC: the self-cleavage was determined as 0.16.

With GGCAGAGCUCAACACAGCGUGGCAAAAAGGCUUUGGCUAGACUGCC, the self-cleavage worked out at 0.38.

Regarding GGCAGAGCUCAACACAGCGUGGCAAUGUUGCUGUGGCUAGAAUGCC, the self-cleavage amounted to 0.31.

In the case of GGCAGAGCUCAACACAGCGUGGCAAUGUGACUGUGGCAAAAGUGCC, the self-cleavage worked out at 0.11.

As for GGCAGAGCUCAACACAGCGUGGCAAAAUGGCUAUAGCUAGUCUGCC, the self-cleavage was found to be 0.02.

As to GGCAGAGCUCAACACAGCGUGGCAAAAUGGCCGUGGCUGGCCAGCC, the self-cleavage amounted to 0.05.

GGCAGAGCUCAACACAGCGUGGCAAACUGGCUUUGGCUCGACUGCC: the self-cleavage was determined as 0.02.
